Results on 13 proteins are retold here after the supplement of paper PMC11876631.

First the molecules themselves.
B1: lptG M288A (protein)
chain: MQPFGVLDRYIGKTIFTTIMMTLFMLVSLSGIIKFVDQLKKAGQGSYDALGAGMYTLLSVPKDVQIFFPMAALLGALLGLGMLAQRSELVVMQASGFTRMQVALSVMKTAIPLVLLTMAIGEWVAPQGEQMARNYRAQAMYGGSLLSTQQGLWAKDGNNFVYIERVKGDEELGGISIYAFNENRRLQSVRYAATAKFDPEHKVWRLSQVDESDLTNPKQITGSQTVSGTWKTNLTPDKLGVVALDPDALSISGLHNYVKYLKSSGQDAGRYQLNMWSKIFQPLSVAVAMLMALSFIFGPLRSVPMGVRVVTGISFGFVFYVLDQIFGPLTLVYGIPPIIGALLPSASFFLISLWLLMRKS
B2: lptG M289Q (protein)
chain: MQPFGVLDRYIGKTIFTTIMMTLFMLVSLSGIIKFVDQLKKAGQGSYDALGAGMYTLLSVPKDVQIFFPMAALLGALLGLGMLAQRSELVVMQASGFTRMQVALSVMKTAIPLVLLTMAIGEWVAPQGEQMARNYRAQAMYGGSLLSTQQGLWAKDGNNFVYIERVKGDEELGGISIYAFNENRRLQSVRYAATAKFDPEHKVWRLSQVDESDLTNPKQITGSQTVSGTWKTNLTPDKLGVVALDPDALSISGLHNYVKYLKSSGQDAGRYQLNMWSKIFQPLSVAVMQLMALSFIFGPLRSVPMGVRVVTGISFGFVFYVLDQIFGPLTLVYGIPPIIGALLPSASFFLISLWLLMRKS
B3: lptG M288W (protein)
chain: MQPFGVLDRYIGKTIFTTIMMTLFMLVSLSGIIKFVDQLKKAGQGSYDALGAGMYTLLSVPKDVQIFFPMAALLGALLGLGMLAQRSELVVMQASGFTRMQVALSVMKTAIPLVLLTMAIGEWVAPQGEQMARNYRAQAMYGGSLLSTQQGLWAKDGNNFVYIERVKGDEELGGISIYAFNENRRLQSVRYAATAKFDPEHKVWRLSQVDESDLTNPKQITGSQTVSGTWKTNLTPDKLGVVALDPDALSISGLHNYVKYLKSSGQDAGRYQLNMWSKIFQPLSVAVWMLMALSFIFGPLRSVPMGVRVVTGISFGFVFYVLDQIFGPLTLVYGIPPIIGALLPSASFFLISLWLLMRKS
B4: lptG M288D (protein)
chain: MQPFGVLDRYIGKTIFTTIMMTLFMLVSLSGIIKFVDQLKKAGQGSYDALGAGMYTLLSVPKDVQIFFPMAALLGALLGLGMLAQRSELVVMQASGFTRMQVALSVMKTAIPLVLLTMAIGEWVAPQGEQMARNYRAQAMYGGSLLSTQQGLWAKDGNNFVYIERVKGDEELGGISIYAFNENRRLQSVRYAATAKFDPEHKVWRLSQVDESDLTNPKQITGSQTVSGTWKTNLTPDKLGVVALDPDALSISGLHNYVKYLKSSGQDAGRYQLNMWSKIFQPLSVAVDMLMALSFIFGPLRSVPMGVRVVTGISFGFVFYVLDQIFGPLTLVYGIPPIIGALLPSASFFLISLWLLMRKS
B5: lptG M289D (protein)
chain: MQPFGVLDRYIGKTIFTTIMMTLFMLVSLSGIIKFVDQLKKAGQGSYDALGAGMYTLLSVPKDVQIFFPMAALLGALLGLGMLAQRSELVVMQASGFTRMQVALSVMKTAIPLVLLTMAIGEWVAPQGEQMARNYRAQAMYGGSLLSTQQGLWAKDGNNFVYIERVKGDEELGGISIYAFNENRRLQSVRYAATAKFDPEHKVWRLSQVDESDLTNPKQITGSQTVSGTWKTNLTPDKLGVVALDPDALSISGLHNYVKYLKSSGQDAGRYQLNMWSKIFQPLSVAVMDLMALSFIFGPLRSVPMGVRVVTGISFGFVFYVLDQIFGPLTLVYGIPPIIGALLPSASFFLISLWLLMRKS
B6: lptG M289W (protein)
chain: MQPFGVLDRYIGKTIFTTIMMTLFMLVSLSGIIKFVDQLKKAGQGSYDALGAGMYTLLSVPKDVQIFFPMAALLGALLGLGMLAQRSELVVMQASGFTRMQVALSVMKTAIPLVLLTMAIGEWVAPQGEQMARNYRAQAMYGGSLLSTQQGLWAKDGNNFVYIERVKGDEELGGISIYAFNENRRLQSVRYAATAKFDPEHKVWRLSQVDESDLTNPKQITGSQTVSGTWKTNLTPDKLGVVALDPDALSISGLHNYVKYLKSSGQDAGRYQLNMWSKIFQPLSVAVMWLMALSFIFGPLRSVPMGVRVVTGISFGFVFYVLDQIFGPLTLVYGIPPIIGALLPSASFFLISLWLLMRKS
B7: lptG L73D (protein)
chain: MQPFGVLDRYIGKTIFTTIMMTLFMLVSLSGIIKFVDQLKKAGQGSYDALGAGMYTLLSVPKDVQIFFPMAADLGALLGLGMLAQRSELVVMQASGFTRMQVALSVMKTAIPLVLLTMAIGEWVAPQGEQMARNYRAQAMYGGSLLSTQQGLWAKDGNNFVYIERVKGDEELGGISIYAFNENRRLQSVRYAATAKFDPEHKVWRLSQVDESDLTNPKQITGSQTVSGTWKTNLTPDKLGVVALDPDALSISGLHNYVKYLKSSGQDAGRYQLNMWSKIFQPLSVAVMMLMALSFIFGPLRSVPMGVRVVTGISFGFVFYVLDQIFGPLTLVYGIPPIIGALLPSASFFLISLWLLMRKS
B8: lptG M289A (protein)
chain: MQPFGVLDRYIGKTIFTTIMMTLFMLVSLSGIIKFVDQLKKAGQGSYDALGAGMYTLLSVPKDVQIFFPMAALLGALLGLGMLAQRSELVVMQASGFTRMQVALSVMKTAIPLVLLTMAIGEWVAPQGEQMARNYRAQAMYGGSLLSTQQGLWAKDGNNFVYIERVKGDEELGGISIYAFNENRRLQSVRYAATAKFDPEHKVWRLSQVDESDLTNPKQITGSQTVSGTWKTNLTPDKLGVVALDPDALSISGLHNYVKYLKSSGQDAGRYQLNMWSKIFQPLSVAVMALMALSFIFGPLRSVPMGVRVVTGISFGFVFYVLDQIFGPLTLVYGIPPIIGALLPSASFFLISLWLLMRKS
B9: lptG L73Q (protein)
chain: MQPFGVLDRYIGKTIFTTIMMTLFMLVSLSGIIKFVDQLKKAGQGSYDALGAGMYTLLSVPKDVQIFFPMAAQLGALLGLGMLAQRSELVVMQASGFTRMQVALSVMKTAIPLVLLTMAIGEWVAPQGEQMARNYRAQAMYGGSLLSTQQGLWAKDGNNFVYIERVKGDEELGGISIYAFNENRRLQSVRYAATAKFDPEHKVWRLSQVDESDLTNPKQITGSQTVSGTWKTNLTPDKLGVVALDPDALSISGLHNYVKYLKSSGQDAGRYQLNMWSKIFQPLSVAVMMLMALSFIFGPLRSVPMGVRVVTGISFGFVFYVLDQIFGPLTLVYGIPPIIGALLPSASFFLISLWLLMRKS
B10: lptG L73A (protein)
chain: MQPFGVLDRYIGKTIFTTIMMTLFMLVSLSGIIKFVDQLKKAGQGSYDALGAGMYTLLSVPKDVQIFFPMAAALGALLGLGMLAQRSELVVMQASGFTRMQVALSVMKTAIPLVLLTMAIGEWVAPQGEQMARNYRAQAMYGGSLLSTQQGLWAKDGNNFVYIERVKGDEELGGISIYAFNENRRLQSVRYAATAKFDPEHKVWRLSQVDESDLTNPKQITGSQTVSGTWKTNLTPDKLGVVALDPDALSISGLHNYVKYLKSSGQDAGRYQLNMWSKIFQPLSVAVMMLMALSFIFGPLRSVPMGVRVVTGISFGFVFYVLDQIFGPLTLVYGIPPIIGALLPSASFFLISLWLLMRKS
B11: lptG M288P (protein)
chain: MQPFGVLDRYIGKTIFTTIMMTLFMLVSLSGIIKFVDQLKKAGQGSYDALGAGMYTLLSVPKDVQIFFPMAALLGALLGLGMLAQRSELVVMQASGFTRMQVALSVMKTAIPLVLLTMAIGEWVAPQGEQMARNYRAQAMYGGSLLSTQQGLWAKDGNNFVYIERVKGDEELGGISIYAFNENRRLQSVRYAATAKFDPEHKVWRLSQVDESDLTNPKQITGSQTVSGTWKTNLTPDKLGVVALDPDALSISGLHNYVKYLKSSGQDAGRYQLNMWSKIFQPLSVAVPMLMALSFIFGPLRSVPMGVRVVTGISFGFVFYVLDQIFGPLTLVYGIPPIIGALLPSASFFLISLWLLMRKS
B12: lptG I15Q (protein)
chain: MQPFGVLDRYIGKTQFTTIMMTLFMLVSLSGIIKFVDQLKKAGQGSYDALGAGMYTLLSVPKDVQIFFPMAALLGALLGLGMLAQRSELVVMQASGFTRMQVALSVMKTAIPLVLLTMAIGEWVAPQGEQMARNYRAQAMYGGSLLSTQQGLWAKDGNNFVYIERVKGDEELGGISIYAFNENRRLQSVRYAATAKFDPEHKVWRLSQVDESDLTNPKQITGSQTVSGTWKTNLTPDKLGVVALDPDALSISGLHNYVKYLKSSGQDAGRYQLNMWSKIFQPLSVAVMMLMALSFIFGPLRSVPMGVRVVTGISFGFVFYVLDQIFGPLTLVYGIPPIIGALLPSASFFLISLWLLMRKS
B13: lptG M288Q (protein)
chain: MQPFGVLDRYIGKTIFTTIMMTLFMLVSLSGIIKFVDQLKKAGQGSYDALGAGMYTLLSVPKDVQIFFPMAALLGALLGLGMLAQRSELVVMQASGFTRMQVALSVMKTAIPLVLLTMAIGEWVAPQGEQMARNYRAQAMYGGSLLSTQQGLWAKDGNNFVYIERVKGDEELGGISIYAFNENRRLQSVRYAATAKFDPEHKVWRLSQVDESDLTNPKQITGSQTVSGTWKTNLTPDKLGVVALDPDALSISGLHNYVKYLKSSGQDAGRYQLNMWSKIFQPLSVAVQMLMALSFIFGPLRSVPMGVRVVTGISFGFVFYVLDQIFGPLTLVYGIPPIIGALLPSASFFLISLWLLMRKS

± gives the standard deviation of the averaged measurements. Laboratory Escherichia coli strains with one amino-acid change in an essential protein, pooled on minimal glucose agar with carbenicillin or gentamicin at twice the control MIC (plus kanamycin and chloramphenicol for the plasmids), 48 h. Fold change of barcode share against drug-free plates; higher = less susceptible. Active = above 20 in both replicates (the paper's putatively resistant). '<' = one read or none on drug, '>' = one read or none on a drug-free plate. Shares are relative, so most strains fall below 1 when a few take over. Listed are strains with at least 15 reads on both drug-free plates, and hits; most hits rest on fewer reference reads. Replicate rank correlation about 0.5. Edits are read from barcodes.

The target in one data set is Escherichia coli (laboratory strain). Kind of data set: barcode share on antibiotic plates over drug-free plates; higher = less susceptible. The note with it: antibiotic: carbenicillin; 2× MIC (3.1 µg/mL). The procedure: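 A pool of E. coli strains, each edited to carry one amino-acid change in an essential protein, was grown for 48 h on minimal glucose agar with or without antibiotic; strain barcodes were sequenced; mean of two replicates.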
For the protein B1, the “fold change of barcode share” value came out at 0.355 ± 0.17.
In the case of B2, the “fold change of barcode share” value was 0.25 ± 0.064.
Same read-out and setting: to B3 belongs 0.296 ± 0.18; to B4, 0.254 ± 0.018; to B5, 0.263 ± 0.0082.
With B6, the “fold change of barcode share” value came to 0.235 ± 0.044.
For B7, the “fold change of barcode share” value stood at 0.411 ± 0.16.
On the same count and under the same terms, to B8 belongs 0.293 ± 0.12; to B9, 0.299 ± 0.064; to B10, 0.418 ± 0.069.
The same measure, in the same setting: to B11 belongs 0.272 ± 0.015.
On the same count and under the same terms, to B12 belongs 0.612 ± 0.33.
As for B13, the “fold change of barcode share” value was found to be 0.217 ± 0.049.

Staying with this data set, now noted: antibiotic: gentamicin; 2× MIC (MIC 0.45 µg/mL).
With B1, the “fold change of barcode share” value was below 0.00397.
Still for that read-out and setting: to B2 belongs 0.00592 ± 0.0022; to B3, 0.00577 ± 0.0034.
The same measure, in the same setting: with B4 the figure was 0.00743 ± 0.0032; with B5, 0.00718 ± 0.0047.
In the case of B6, the “fold change of barcode share” value is 0.0084 ± 0.002.
The same measure, in the same setting: with B7 the figure was 0.00704 ± 0.00045; with B8, below 0.00636; with B9, 0.00727 ± 0.0067.
Regarding B10, the “fold change of barcode share” value was 0.00268 ± 0.00013.
Still for that read-out and setting: with B11 the figure was below 0.00383; with B13, 0.00332 ± 0.0016.
